# Among all 73,000 compounds or so, about 1,800 (2.5%) were called active. The inconclusive results got no clear call from the source; some entries with a clear call stand among them for comparison. Calls follow the shape of the dose curve; as a rule, active = well fitted activation curve with a large enough effect; inconclusive = small, poorly fitted or top-dose-only effect; inactive = no such curve, though single readings can be large or run the other way. No potency is given beside an inconclusive call; the fits are too rough.
# Assay: qHTS Assay for Agonists of the Thyroid Stimulating Hormone Receptor: Activators of Intracellular cAMP Concentrations in Parental HEK 293; also: nearly all actives have a fitted effect of over 55% in size; as to activation: % of control where 0% means no effect
# Conditions: parental HEK293 CNG cAMP sensor, membrane potential fluorescence; activation: at 57.1 µM (top of the series) unless noted
# Outline: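 Parental HEK 293 cells stably expressing a modified CNG channel (no TSHR) report cAMP rise as membrane depolarization. Membrane potential dye with 100 uM RO 20-1724 was loaded for 60 min at room temperature, then compound added for 30 min; fluorescence read at 590 nm.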
# Potency is read from the fitted curve at half-maximal effect; tags tell the direction and shape of the fitted curve.
SMILES,Potency,activation
COCC(C)n1c(SCc2ccc(C(=O)OC)o2)nc2ccccc2c1=O (stereo not drawn),"inconclusive [activator, partial curve]",
O=C(CCN1CCN(c2ccccc2)CC1)Nc1ccccc1F,"inconclusive [activator, single point]",
CO[C@H]1COC(=O)C/C=C\[C@H](C)COC(=O)[C@@H](OCc2ccccc2)/C=C\[C@@H]1C,"inconclusive [activator, partial curve, poor fit]",
CCc1nc(N)c(C#N)c(-c2ccc(O)c(OC)c2)c1C,"inconclusive [activator, single point]",
CCCCCNC(=O)c1cc(S(=O)(=O)N2CCCCC2)ccc1F,"inconclusive [activator, single point]",
O=C(c1ccc(COc2ccccc2Cl)o1)N1CCN(Cc2ccc3c(c2)OCO3)CC1,"inconclusive [activator, single point]",
O=C(COC(=O)c1ccc(Br)o1)Nc1nc2ccccc2s1,"inconclusive [activator, partial curve]",
CCOc1ccc(-n2c(=O)cc(N3CCN(c4ccccc4)CC3)[nH]c2=O)cc1,"inconclusive [activator, single point]",
Cc1cc2ccccc2n1CCNC(=O)C1CCCC1,"inconclusive [activator, single point]",
O=C(O)C1C2C=CC(C2)C1C(=O)Nc1cccc(F)c1 (stereo not drawn),,inactive: 1%
COc1ccc(CC(=O)OCc2cc3ccc(C)cc3[nH]c2=O)cc1,"inconclusive [activator, partial curve]",
CC1CCN(c2oc(Cc3cccc4ccccc34)nc2C#N)CC1,"inconclusive [activator, partial curve]",
N#Cc1c(-c2ccco2)cc(-c2ccc(F)cc2)nc1N,"inconclusive [activator, single point]",
O=C(c1ccc(=O)[nH]c1)N(Cc1ccco1)C1(C(=O)NC2CCCC2)CCCCC1,"inconclusive [activator, single point]",
COc1ccccc1CN1CCCC2(CCN(C(=O)c3ccco3)CC2)C1,,inactive: 21.7%
COc1cccc(Cn2c(Oc3cccc(C)c3)nc3c2c(=O)n(C)c(=O)n3C)c1,active: 25.1 µM,
CC(=O)Nc1ccc(-c2nc(C)c(C(C)=O)n2O)cc1,,inactive: 28.8%
Cn1c(=O)c(-c2ccc(F)cc2)nc2cnc(OCc3ccccc3)nc21,,inactive: 2.38%
Nc1nonc1-c1nc2ccccc2n1Cc1ccccc1,active: 25.1 µM,
CN(C)c1ncc2nc(-c3ccc(Cl)cc3)c(=O)n(Cc3ccc(F)cc3)c2n1,,inactive: 6.3% [at 0.457 µM]
COC(=O)c1ccc(C(NC(=O)OCc2ccccc2)/C(F)=C/[C@@H](C)C(=O)NCc2cccnc2)cc1 (stereo partly drawn),,inactive: 13.2%
CCCn1cc(S(=O)(=O)CC(=O)N2CCc3ccccc32)c2ccccc21,"inconclusive [activator, partial curve]",
CCOC(=O)c1ccccc1NC1c2ccccc2C(=O)N1C1CCN(C(=O)OCC)CC1 (stereo not drawn),"inconclusive [activator, single point]",

SMILES,Potency,activation
CN(CCc1ccccn1)C(=O)c1nn2c(C(F)(F)F)cc(-c3ccco3)nc2c1Cl,,inactive: 19.3% [at 11.4 µM]
CCc1nc2ccccc2n1CCC(C)C,"inconclusive [activator, single point]",
COc1ccccc1-c1nc(C#N)c(N2CCN(Cc3ccccc3)CC2)o1,"inconclusive [activator, single point]",
COc1ccc2cc3cc(C(=O)NCCN4CCN(Cc5ccccc5)CC4)oc3nc2c1,"inconclusive [activator, single point]",
CCOc1ccc(S(=O)(=O)N2CCCCC2)c2ccccc12,"inconclusive [activator, partial curve]",
Brc1ccc2ncnc(Nc3ccc(N4CCOCC4)cc3)c2c1,,inactive: -8.82%
CC(C)(C)c1ccc(-c2nnc(SCc3ccc(Cl)cc3)n2-c2cccc(C(F)(F)F)c2)cc1,,inactive: 7.48% [at 11.4 µM]
CCN(Cc1ccccc1)S(=O)(=O)c1ccc2oc(C(=O)O)c(C)c2c1,"inconclusive [activator, single point]",
O=C(c1cc(-c2ccccc2O)on1)N1CCCC1,"inconclusive [activator, single point]",
Cc1ccc(C)c(NC(=O)CSc2nnc(-c3ccccc3C)o2)c1,"inconclusive [activator, partial curve]",
Cc1ccc(S(=O)(=O)N2CCCC2C(=O)Nc2nc3ccccc3s2)cc1 (stereo not drawn),"inconclusive [activator, single point]",
CN(CC(=O)N1CCc2ccccc21)S(=O)(=O)c1ccc(Br)s1,"inconclusive [activator, partial curve]",
COC(=O)NC(CC(C)=O)c1cccc(C(F)(F)F)c1 (stereo not drawn),,inactive: 0% [at 11.4 µM]
CCn1c(CCNC(=O)c2ccc(OC)c(OC)c2)nc2ccccc21,"inconclusive [activator, single point]",
O=C(O)CN1CCNCC1,,inconclusive: 30.4% [activator]
O=C1CC(Nc2ccc(N3CCOCC3)cc2)C(=O)N1c1cccc(C(F)(F)F)c1 (stereo not drawn),,inactive: 6.74%
CN(C)c1nc(N)nc(CSc2nnnn2-c2cccc3ccccc23)n1,"inconclusive [activator, single point]",
CNc1ncnc2ccc(-c3ccccc3OC)cc12,,inactive: 15.9%
CCOc1ccc(C2CC(c3ccc(OC)c(OC)c3)n3nc(N)nc3N2)cc1 (stereo not drawn),"inconclusive [activator, single point]",
CCC(C)C1C(C#N)=C(N)OC2=C1C(=O)CC(C)(C)C2 (stereo not drawn),"inconclusive [activator, single point]",
COc1cccc(Cn2c(=O)cnc3cnc(OCc4ccccc4)nc32)c1,"inconclusive [activator, partial curve]",
CCC(=O)[C@@]1(O)C(=O)N2C(=C3C(=O)OCCC31)N(Cc1ccccc1)C(C)=C(C(=O)OC)C2c1ccccc1 (stereo partly drawn),,inactive: -4.74% [at 11.4 µM]
COc1ccc(C(=O)c2c[nH]c3ccccc23)cc1,,inactive: -1.37% [at 11.4 µM]

SMILES,Potency,activation
CC1CCN(C(=O)CN2C(=O)C(C)(C)Oc3ccc(C(=O)NC4CCCC4)cc32)CC1,"inconclusive [activator, single point]",
O=C(NCCCN1CCOCC1)c1cc2cc(Br)ccc2oc1=O,"inconclusive [activator, single point]",
CO[C@H]1COC(=O)[C@H](C)NC(=O)C/C=C\[C@@H](C)[C@@H](NS(=O)(=O)c2ccc(C)cc2)COC(=O)C/C=C\[C@@H]1C,,inactive: -1.48% [at 11.4 µM]
COc1ccccc1Nc1nc(N)nc(-c2cc3ccccc3o2)n1,,inactive: 7.26%
COc1ccc(CCNC(=O)CS(=O)Cc2nc(-c3cccs3)oc2C)cc1OC (stereo not drawn),"inconclusive [activator, single point]",
COc1ccccc1CN1CC[C@@]2(CCCN(C(=O)c3ccco3)C2)C1,"inconclusive [activator, partial curve]",
Cc1noc(C)c1C(=O)N1CCC2(CCCN(C(=O)Nc3cccc(C#N)c3)C2)CC1,"inconclusive [activator, single point]",
Nc1cc(C(Cl)=C(Cl)Cl)c(S(N)(=O)=O)cc1S(N)(=O)=O,,inactive: 7.06% [at 25.6 µM]
CCOC(=O)c1ccccc1NC(=O)CSc1ncc(C(=O)OCC)c(N)n1,active: 20 µM,
COc1ccc(OC)c(NC(=O)C2CCN(c3ncccn3)CC2)c1,"inconclusive [activator, single point]",
CCCCOC(=O)Cn1c(=O)c2c(nc3n2CCCCN3c2ccc(C)cc2)n(C)c1=O,"inconclusive [activator, partial curve]",
Cc1nc2ccccn2c1/C(O)=C1\C(=O)C(=O)N(CCCN(C)C)C1c1ccc(F)cc1 (stereo not drawn),"inconclusive [activator, single point]",
CC(C)N(Cc1cc2ccccc2[nH]c1=O)C(=O)C1CCCCC1,"inconclusive [activator, single point]",
CCOCCn1c(SCCCc2ccccc2)nc2c1c(=O)[nH]c(=O)n2C,,inactive: 28.4%
N#Cc1ccc(CN2CC[C@@]3(CCCN(C(=O)c4cc(C(F)(F)F)cc(C(F)(F)F)c4)C3)C2)cc1,"inconclusive [activator, partial curve, poor fit]",
COCC(=O)N1CCC2(CC1)CCN(C(=O)Nc1cccc(C#N)c1)CC2,,inactive: 0.695%
Cc1ccc(CCNC(=O)C2CCCN(c3nc4ccccc4o3)C2)cc1 (stereo not drawn),"inconclusive [activator, full curve]",
COc1ccc2[nH]c(=O)c(CN(Cc3nnnn3Cc3ccccc3)CC3CCCO3)cc2c1 (stereo not drawn),"inconclusive [activator, partial curve]",
COc1ccc(NC(=O)CN2CCN(C3c4ccccc4-c4ccccc43)CC2)c(OC)c1,"inconclusive [activator, partial curve]",
O=C(CCCCCN1C(=O)c2ccccc2C1=O)NCc1ccco1,,inactive: 4.28%
CCCn1c(-c2ccc(OC)cc2)nc2ccccc21,active: 25.1 µM,
COc1cccc(NC(=O)c2ccccc2-c2nc(-c3ccc(Cl)cc3)no2)c1,"inconclusive [activator, partial curve, poor fit]",
